In all, about 81,000 sequences were measured (“one-hybrid fitness for binding NBS DNA”: median about -0.1, highest 2% from about 0.36 on). The list shows a part of the results.
B1: Caulobacter ParB omega fusion; a variant is named by its letters at X, in order, B8GW30 (parent)
chain: MESVVVGEPGMSEGRRGLGRGLSALLGEVDAAPAQAPGEQLGGSREAPIEILQRNPDQPRRTFREEDLEDLSNSIREKGVLQPILVRPSPDTAGEYQIVAGERAWRAAQRAGLKTVPIMVRELDDLAVLEIGIIENVQRADLNVLEEALSYKVLMEKFERTQENIAQTIGKSXSHVANXMRLLXLPDEVQSYLVSGELTAXHARAIAAAADPVALAKQIIEGGLSVRETEALARKAPNLSAGKSKGGRPPRVKDTDTQALESDLSSVLGLDVSIDHRGSTGTLTITYATLEQLDDLCNRLTRGI

Variants of: B1
Assay: one-hybrid fitness for binding NBS DNA (the Noc-binding site; scaled: cognate 1, non-cognate 0); higher = stronger binding
Settings: with NBS DNA site
Method in brief: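 On M9-minus-histidine containing 0.1 mM IPTG and 5 mM 3-AT, E. coli USO cells with a HIS3 reporter, site 19 bp from the promoter, grew 48 hours at 37°C to select Caulobacter ParB libraries randomised at four specificity codons. Plasmids from before and after were Illumina-sequenced, with three replicate libraries pooled and variants under 10 reads left out. Fitness is the log change in variant-to-wild-type read ratio, rescaled against cognate and non-cognate.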

PCGV and VFGR cannot be ordered by “one-hybrid fitness for binding NBS DNA” value: ≤ 0.2 for the first, ≤ 0.2 for the second.

Going from SIIE to RVYR, the “one-hybrid fitness for binding NBS DNA” value rises from ≤ 0.2 to 0.359.

QKNW and DARR cannot be ordered by “one-hybrid fitness for binding NBS DNA” value: ≤ 0.2 for the first, ≤ 0.2 for the second.

WSVR and PSRQ cannot be ordered by “one-hybrid fitness for binding NBS DNA” value: ≤ 0.2 for the first, ≤ 0.2 for the second.

HMNG and MTSG cannot be ordered by “one-hybrid fitness for binding NBS DNA” value: ≤ 0.2 for the first, ≤ 0.2 for the second.

SKCC and GEAN cannot be ordered by “one-hybrid fitness for binding NBS DNA” value: ≤ 0.2 for the first, ≤ 0.2 for the second.

VTDT and DSFC cannot be ordered by “one-hybrid fitness for binding NBS DNA” value: ≤ 0.2 for the first, ≤ 0.2 for the second.

Going from IWTG to QSRG, the “one-hybrid fitness for binding NBS DNA” value rises from ≤ 0.2 to 0.319.

GWHS and DPQR cannot be ordered by “one-hybrid fitness for binding NBS DNA” value: ≤ 0.2 for the first, ≤ 0.2 for the second.

WLKW and PFNK cannot be ordered by “one-hybrid fitness for binding NBS DNA” value: ≤ 0.2 for the first, ≤ 0.2 for the second.

HSRC and FTRY cannot be ordered by “one-hybrid fitness for binding NBS DNA” value: ≤ 0.2 for the first, ≤ 0.2 for the second.

LGMG and RHPC cannot be ordered by “one-hybrid fitness for binding NBS DNA” value: ≤ 0.2 for the first, ≤ 0.2 for the second.

RNEY and VRHM cannot be ordered by “one-hybrid fitness for binding NBS DNA” value: ≤ 0.2 for the first, ≤ 0.2 for the second.

QSCY and KTSW cannot be ordered by “one-hybrid fitness for binding NBS DNA” value: ≤ 0.2 for the first, ≤ 0.2 for the second.

DEWR and YSAC cannot be ordered by “one-hybrid fitness for binding NBS DNA” value: ≤ 0.2 for the first, ≤ 0.2 for the second.

NREV and RQMN cannot be ordered by “one-hybrid fitness for binding NBS DNA” value: ≤ 0.2 for the first, ≤ 0.2 for the second.

PCHM and MFHT cannot be ordered by “one-hybrid fitness for binding NBS DNA” value: ≤ 0.2 for the first, ≤ 0.2 for the second.

HLQT and AKYR cannot be ordered by “one-hybrid fitness for binding NBS DNA” value: ≤ 0.2 for the first, ≤ 0.2 for the second.

SMAP and GRAI cannot be ordered by “one-hybrid fitness for binding NBS DNA” value: ≤ 0.2 for the first, ≤ 0.2 for the second.

TPSF and IGYE cannot be ordered by “one-hybrid fitness for binding NBS DNA” value: ≤ 0.2 for the first, ≤ 0.2 for the second.

MWSS and CFAA cannot be ordered by “one-hybrid fitness for binding NBS DNA” value: ≤ 0.2 for the first, ≤ 0.2 for the second.

EHQD and YPMC cannot be ordered by “one-hybrid fitness for binding NBS DNA” value: ≤ 0.2 for the first, ≤ 0.2 for the second.

NDAS and RPKA cannot be ordered by “one-hybrid fitness for binding NBS DNA” value: ≤ 0.2 for the first, ≤ 0.2 for the second.

VMSS and KWRV cannot be ordered by “one-hybrid fitness for binding NBS DNA” value: ≤ 0.2 for the first, ≤ 0.2 for the second.

SKAG and LPDK cannot be ordered by “one-hybrid fitness for binding NBS DNA” value: ≤ 0.2 for the first, ≤ 0.2 for the second.

HDQY and NTQT cannot be ordered by “one-hybrid fitness for binding NBS DNA” value: ≤ 0.2 for the first, ≤ 0.2 for the second.

AVSQ and PQSP cannot be ordered by “one-hybrid fitness for binding NBS DNA” value: ≤ 0.2 for the first, ≤ 0.2 for the second.

SVRT and QMYK cannot be ordered by “one-hybrid fitness for binding NBS DNA” value: ≤ 0.2 for the first, ≤ 0.2 for the second.

ITCC and CYHL cannot be ordered by “one-hybrid fitness for binding NBS DNA” value: ≤ 0.2 for the first, ≤ 0.2 for the second.

VCRT and YWNS cannot be ordered by “one-hybrid fitness for binding NBS DNA” value: ≤ 0.2 for the first, ≤ 0.2 for the second.

GITR and CRNA cannot be ordered by “one-hybrid fitness for binding NBS DNA” value: ≤ 0.2 for the first, ≤ 0.2 for the second.

EIAA and FMQR cannot be ordered by “one-hybrid fitness for binding NBS DNA” value: ≤ 0.2 for the first, ≤ 0.2 for the second.

WLYA and SKTH cannot be ordered by “one-hybrid fitness for binding NBS DNA” value: ≤ 0.2 for the first, ≤ 0.2 for the second.

TWMG and SWQL cannot be ordered by “one-hybrid fitness for binding NBS DNA” value: ≤ 0.2 for the first, ≤ 0.2 for the second.

WCAL and SDSG cannot be ordered by “one-hybrid fitness for binding NBS DNA” value: ≤ 0.2 for the first, ≤ 0.2 for the second.

RRDM and NRNK cannot be ordered by “one-hybrid fitness for binding NBS DNA” value: ≤ 0.2 for the first, ≤ 0.2 for the second.

First: QTVR
Second: RYAA
The “one-hybrid fitness for binding NBS DNA” value of the first is higher: 0.558 for the first, ≤ 0.2 for the second.

NFSS and EFAG cannot be ordered by “one-hybrid fitness for binding NBS DNA” value: ≤ 0.2 for the first, ≤ 0.2 for the second.

WWQF and DRRC cannot be ordered by “one-hybrid fitness for binding NBS DNA” value: ≤ 0.2 for the first, ≤ 0.2 for the second.

IETR and RYRV cannot be ordered by “one-hybrid fitness for binding NBS DNA” value: ≤ 0.2 for the first, ≤ 0.2 for the second.

LYLT and LSTS cannot be ordered by “one-hybrid fitness for binding NBS DNA” value: ≤ 0.2 for the first, ≤ 0.2 for the second.

VTLI and VINL cannot be ordered by “one-hybrid fitness for binding NBS DNA” value: ≤ 0.2 for the first, ≤ 0.2 for the second.

PRRY and NLSS cannot be ordered by “one-hybrid fitness for binding NBS DNA” value: ≤ 0.2 for the first, ≤ 0.2 for the second.

RTMG and HCYC cannot be ordered by “one-hybrid fitness for binding NBS DNA” value: ≤ 0.2 for the first, ≤ 0.2 for the second.

TKDF and TASH cannot be ordered by “one-hybrid fitness for binding NBS DNA” value: ≤ 0.2 for the first, ≤ 0.2 for the second.

AAYY and QAQQ cannot be ordered by “one-hybrid fitness for binding NBS DNA” value: ≤ 0.2 for the first, ≤ 0.2 for the second.

Compared with QHNA, DNTV is lower in “one-hybrid fitness for binding NBS DNA” value: 0.294 for the first, ≤ 0.2 for the second.

Compared with ATKS, QKQT is higher in “one-hybrid fitness for binding NBS DNA” value: ≤ 0.2 for the first, 0.578 for the second.

PVEV and NWHW cannot be ordered by “one-hybrid fitness for binding NBS DNA” value: ≤ 0.2 for the first, ≤ 0.2 for the second.

GVPH and FSDD cannot be ordered by “one-hybrid fitness for binding NBS DNA” value: ≤ 0.2 for the first, ≤ 0.2 for the second.

PTVA and ENRN cannot be ordered by “one-hybrid fitness for binding NBS DNA” value: ≤ 0.2 for the first, ≤ 0.2 for the second.

NGKT and TMNE cannot be ordered by “one-hybrid fitness for binding NBS DNA” value: ≤ 0.2 for the first, ≤ 0.2 for the second.

RHSY and VYQY cannot be ordered by “one-hybrid fitness for binding NBS DNA” value: ≤ 0.2 for the first, ≤ 0.2 for the second.

IYHM and WIKG cannot be ordered by “one-hybrid fitness for binding NBS DNA” value: ≤ 0.2 for the first, ≤ 0.2 for the second.

PVYY and PVSS cannot be ordered by “one-hybrid fitness for binding NBS DNA” value: ≤ 0.2 for the first, ≤ 0.2 for the second.

TCLA and RGKH cannot be ordered by “one-hybrid fitness for binding NBS DNA” value: ≤ 0.2 for the first, ≤ 0.2 for the second.

GRSR and FRTE cannot be ordered by “one-hybrid fitness for binding NBS DNA” value: ≤ 0.2 for the first, ≤ 0.2 for the second.

LKGE and DNLC cannot be ordered by “one-hybrid fitness for binding NBS DNA” value: ≤ 0.2 for the first, ≤ 0.2 for the second.

SGGC and VDGI cannot be ordered by “one-hybrid fitness for binding NBS DNA” value: ≤ 0.2 for the first, ≤ 0.2 for the second.

NRIM and TMKV cannot be ordered by “one-hybrid fitness for binding NBS DNA” value: ≤ 0.2 for the first, ≤ 0.2 for the second.

NLTR and TFES cannot be ordered by “one-hybrid fitness for binding NBS DNA” value: ≤ 0.2 for the first, ≤ 0.2 for the second.

AIAM and PWLV cannot be ordered by “one-hybrid fitness for binding NBS DNA” value: ≤ 0.2 for the first, ≤ 0.2 for the second.

ESEF and DTED cannot be ordered by “one-hybrid fitness for binding NBS DNA” value: ≤ 0.2 for the first, ≤ 0.2 for the second.

ITFF and REAP cannot be ordered by “one-hybrid fitness for binding NBS DNA” value: ≤ 0.2 for the first, ≤ 0.2 for the second.

RFIH and MIVC cannot be ordered by “one-hybrid fitness for binding NBS DNA” value: ≤ 0.2 for the first, ≤ 0.2 for the second.

HGQR and QSGH cannot be ordered by “one-hybrid fitness for binding NBS DNA” value: ≤ 0.2 for the first, ≤ 0.2 for the second.

YVYR and GDKY cannot be ordered by “one-hybrid fitness for binding NBS DNA” value: ≤ 0.2 for the first, ≤ 0.2 for the second.

RCYI and DNML cannot be ordered by “one-hybrid fitness for binding NBS DNA” value: ≤ 0.2 for the first, ≤ 0.2 for the second.

VHNT and YEVI cannot be ordered by “one-hybrid fitness for binding NBS DNA” value: ≤ 0.2 for the first, ≤ 0.2 for the second.

AWAS and SGGE cannot be ordered by “one-hybrid fitness for binding NBS DNA” value: ≤ 0.2 for the first, ≤ 0.2 for the second.

NTCT and PAYE cannot be ordered by “one-hybrid fitness for binding NBS DNA” value: ≤ 0.2 for the first, ≤ 0.2 for the second.

QCGG and EAST cannot be ordered by “one-hybrid fitness for binding NBS DNA” value: ≤ 0.2 for the first, ≤ 0.2 for the second.

YMNR and NEIW cannot be ordered by “one-hybrid fitness for binding NBS DNA” value: ≤ 0.2 for the first, ≤ 0.2 for the second.

STYV and QMDL cannot be ordered by “one-hybrid fitness for binding NBS DNA” value: ≤ 0.2 for the first, ≤ 0.2 for the second.

Going from QEPR to QDES, the “one-hybrid fitness for binding NBS DNA” value falls from 0.302 to ≤ 0.2.

MFNT and GVTW cannot be ordered by “one-hybrid fitness for binding NBS DNA” value: ≤ 0.2 for the first, ≤ 0.2 for the second.

AEMV and STGG cannot be ordered by “one-hybrid fitness for binding NBS DNA” value: ≤ 0.2 for the first, ≤ 0.2 for the second.

YLAA and YWLL cannot be ordered by “one-hybrid fitness for binding NBS DNA” value: ≤ 0.2 for the first, ≤ 0.2 for the second.

Compared with RCHA, YFLC is lower in “one-hybrid fitness for binding NBS DNA” value: 0.307 for the first, ≤ 0.2 for the second.

HRAS and KGSF cannot be ordered by “one-hybrid fitness for binding NBS DNA” value: ≤ 0.2 for the first, ≤ 0.2 for the second.

DKSV and FFNR cannot be ordered by “one-hybrid fitness for binding NBS DNA” value: ≤ 0.2 for the first, ≤ 0.2 for the second.

STAV and DTHM cannot be ordered by “one-hybrid fitness for binding NBS DNA” value: ≤ 0.2 for the first, ≤ 0.2 for the second.

DTVG and PQLT cannot be ordered by “one-hybrid fitness for binding NBS DNA” value: ≤ 0.2 for the first, ≤ 0.2 for the second.

RLGV and KIGE cannot be ordered by “one-hybrid fitness for binding NBS DNA” value: ≤ 0.2 for the first, ≤ 0.2 for the second.

TANM and VTTP cannot be ordered by “one-hybrid fitness for binding NBS DNA” value: ≤ 0.2 for the first, ≤ 0.2 for the second.

YTTV and VKYR cannot be ordered by “one-hybrid fitness for binding NBS DNA” value: ≤ 0.2 for the first, ≤ 0.2 for the second.

CHLR and TTIH cannot be ordered by “one-hybrid fitness for binding NBS DNA” value: ≤ 0.2 for the first, ≤ 0.2 for the second.

WCIT and DMCC cannot be ordered by “one-hybrid fitness for binding NBS DNA” value: ≤ 0.2 for the first, ≤ 0.2 for the second.

LRGD and ETML cannot be ordered by “one-hybrid fitness for binding NBS DNA” value: ≤ 0.2 for the first, ≤ 0.2 for the second.

ASGR and NYEM cannot be ordered by “one-hybrid fitness for binding NBS DNA” value: ≤ 0.2 for the first, ≤ 0.2 for the second.

RCVD and EATV cannot be ordered by “one-hybrid fitness for binding NBS DNA” value: ≤ 0.2 for the first, ≤ 0.2 for the second.

NLSG and MHEV cannot be ordered by “one-hybrid fitness for binding NBS DNA” value: ≤ 0.2 for the first, ≤ 0.2 for the second.

AWES and GYST cannot be ordered by “one-hybrid fitness for binding NBS DNA” value: ≤ 0.2 for the first, ≤ 0.2 for the second.

EPRR and PSYN cannot be ordered by “one-hybrid fitness for binding NBS DNA” value: ≤ 0.2 for the first, ≤ 0.2 for the second.

Going from YIAQ to RTLS, the “one-hybrid fitness for binding NBS DNA” value rises from ≤ 0.2 to 0.381.

QKPV and PNQI cannot be ordered by “one-hybrid fitness for binding NBS DNA” value: ≤ 0.2 for the first, ≤ 0.2 for the second.

WVPC and AWAR cannot be ordered by “one-hybrid fitness for binding NBS DNA” value: ≤ 0.2 for the first, ≤ 0.2 for the second.

For CRQC, the “one-hybrid fitness for binding NBS DNA” value was ≤ 0.2.
